± gives the standard deviation of the averaged measurements. The full ranking holds about 33,000 sequences; the median of “E-score (dimensionless, -0.5 to 0.5)” is about -0.046, and the highest 2% start at about 0.36. Some of the results follow.
System: T1, SpTbr T-box DNA-binding domain (GST fusion)
T1 sequence: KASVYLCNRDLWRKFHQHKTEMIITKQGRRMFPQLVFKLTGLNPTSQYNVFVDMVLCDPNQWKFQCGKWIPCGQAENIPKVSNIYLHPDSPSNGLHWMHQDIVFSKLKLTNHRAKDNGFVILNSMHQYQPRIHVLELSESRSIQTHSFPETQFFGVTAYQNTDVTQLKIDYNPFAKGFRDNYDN
Assay: PBM E-score of 8-mer (E-score (dimensionless, -0.5 to 0.5)); Tbr is Tbrain of the sea star Patiria miniata (Pm) or the sea urchin Strongylocentrotus purpuratus (Sp); higher = stronger binding preference; most listed sequences are background and not binding sites
Conditions: the construct has about 5 more residues each side
Summary of the method: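 Primer extension turned Universal Agilent oligonucleotide arrays double-stranded. They were incubated with 200 nM protein in PBS (pH 7.5); the protein was a GST-fused Tbr T-box DNA-binding domain expressed in BL21 E. coli at 20 °C and purified on glutathione. Every ungapped 8-mer was scored from the scanned, quantified probe intensities, and the Universal PBM Analysis Suite gave each an enrichment E-score averaged over duplicate arrays.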

Row | Sequence | PBM E-score of 8-mer
1 | GTATGTCA | 0.124 ± 0.013
2 | CCTGCTAA | 0.269 ± 0.031
3 | GCGCACCA | 0.00307 ± 0.052
4 | AGCCGTAA | -0.0458 ± 0.035
5 | TCTAAACA | -0.0194 ± 0.033
6 | ACTCTTCC | 0.0238 ± 0.049
7 | AACACTGG | -0.0384 ± 0.018
8 | CGATGGAA | 0.0114 ± 0.05
9 | ACAGCCAG | -0.0422 ± 0.015
10 | ATTCATCA | 0.0642 ± 0.0052
11 | GAAGACCA | -0.0319 ± 0.069
12 | ATAAGAGC | -0.19 ± 0.022
13 | GAGTAGAA | -0.279 ± 0.06
14 | CGGAAGGC | -0.106 ± 0.0021
15 | ACGCGGCC | -0.0719 ± 0.013
16 | AGGTAGTA | -0.109 ± 0.075
17 | CAGCCCGA | -0.23105 ± 8.5e-05
18 | ACGCAGCG | -0.0568 ± 0.023
19 | AGGAACAC | 0.119 ± 0.05
20 | ATGCGACG | -0.0552 ± 0.022
21 | AGTCATTC | 0.0184 ± 0.041
22 | CTTACGAA | -0.0673 ± 0.021

Row | Sequence | PBM E-score of 8-mer
23 | GAGGGCAA | -0.0557 ± 0.006
24 | TACTGGCA | 0.096 ± 0.038
25 | CACCTAGA | 0.294 ± 0.073
26 | TACTCGGA | -0.173 ± 0.045
27 | AACCTACA | 0.115 ± 0.031
28 | AAGAGGAT | 0.0367 ± 0.026
29 | ACAAGATC | -0.00501 ± 0.022
30 | CTATGCAG | -0.164 ± 0.12
31 | AAAATTGT | -0.00993 ± 0.011
32 | TCCCTGCA | -0.144 ± 0.026
33 | GACGTGCC | 0.213 ± 0.03
34 | AGGGGGTC | -0.232 ± 0.052
35 | ATGGCCTA | -0.224 ± 0.048
36 | ATTAACGG | -0.0998 ± 0.097
37 | GTTGAGAA | 0.245 ± 0.027
38 | GTACTGCA | -0.0903 ± 0.067
39 | ACTGCTCT | -0.169 ± 0.043
40 | GTGTCAGA | 0.387 ± 0.023
41 | GACCAATC | 0.0964 ± 0.073
42 | CCCGGGAG | -0.175 ± 0.0097
43 | CTACATCC | -0.0668 ± 0.02
44 | CATAAGTC | -0.18 ± 0.0024

Row | Sequence | PBM E-score of 8-mer
45 | CAGTACAC | -0.0373 ± 0.0042
46 | AATAGTGC | 0.118 ± 0.018
47 | GGACGTCC | -0.204 ± 0.046
48 | CCCCAACC | -0.132 ± 0.064
49 | AGAAAGAC | -0.162 ± 0.0095
50 | GAAATGCC | -0.0459 ± 0.042
51 | GATTTCGA | -0.00198 ± 0.018
52 | CAGAACAG | -0.167 ± 0.029
53 | AGCGGTGA | -0.00518 ± 0.036
54 | ACTAAGAG | -0.118 ± 0.024
55 | AGTAATAA | -0.2 ± 0.054
56 | CGCATGCA | -0.044 ± 0.025
57 | AGGCCGTA | -0.206 ± 0.062
58 | GGGGCAAA | -0.083 ± 0.049
59 | GCCGAAGA | -0.195 ± 0.015
60 | ACTGCAAC | -0.0487 ± 0.026
61 | GCCTAGCA | -0.00432 ± 0.063
62 | CATCTAAA | -0.163 ± 0.075
63 | AAATGCCT | -0.188 ± 0.047
64 | GACATGTA | 0.0701 ± 0.015
65 | AATATCCT | -0.27 ± 0.026
66 | CCGGTCAG | -0.144 ± 0.022

Row | Sequence | PBM E-score of 8-mer
67 | ATCCGGTC | -0.0309 ± 0.01
68 | GTCCATAA | -0.314 ± 0.024
69 | ACTAGGTG | 0.403 ± 0.012
70 | GAAGTGAA | 0.3 ± 0.0084
71 | GTCCGCTA | 0.0475 ± 0.0043
72 | AGCGCCCA | 0.0833 ± 0.077
73 | ATTAGGTA | -0.128 ± 0.05
74 | GCGCCGCA | 0.18 ± 0.016
75 | GCGCATAA | -0.108 ± 0.026
76 | ATCTTACC | -0.266 ± 0.054
77 | GCATAGGA | -0.35 ± 0.05
78 | ATCTCCCA | -0.152 ± 0.05
79 | ACGTCTTA | 0.0179 ± 0.075
80 | AGAATCTG | -0.0658 ± 0.088
81 | GCTAAAAA | 0.043 ± 0.005
82 | CACGCATA | 0.2247 ± 0.00032
83 | CAGAGTAC | -0.0758 ± 0.089
84 | CGCTGCCG | 0.141 ± 0.017
85 | GACGGGCC | -0.12 ± 0.046
86 | TAACTAAA | -0.136 ± 0.068
